Values joined by “and” are separate entries in the source; they are usually repeats but may differ in a detail not shown here. Equal entries are not always repeated. The campaign covered roughly 280,000 compounds. About 1,100 (0.39%) were called active. The inconclusive results got no clear call from the source; some entries with a clear call stand among them for comparison. Calls come from the whole dose curve; as a rule, active = well fitted inhibition curve with a large enough effect; inconclusive = small, poorly fitted or top-dose-only effect, or effect the other way; inactive = flat fitted curve, though single readings scatter. Potencies of inconclusive entries are doubtful fits and often do not repeat.
Biological target: Microtubule-associated protein tau (Homo sapiens) (UniProt P10636)
Experiment: qHTS for Inhibitors of Tau Fibril Formation, Fluorescence Polarization; note: nearly all actives have a fitted effect of over 55% in size
Settings: K18 P301L tau heparin fibrillization, Alexa594 FP, 6 h; series mostly up to 57.7 µM
Outline: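 Recombinant K18 P301L […], labeled with Alexa 594 at 0.24 uM over 15 uM unlabeled; heparin inducer 20 uM final; 37 C, 6 hr; FP endpoint.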
Potency is the fitted concentration of half-maximal effect; tags give direction and shape of the fitted curve.

Chain of UniProt P10636 (P10636 whole entry, looked up): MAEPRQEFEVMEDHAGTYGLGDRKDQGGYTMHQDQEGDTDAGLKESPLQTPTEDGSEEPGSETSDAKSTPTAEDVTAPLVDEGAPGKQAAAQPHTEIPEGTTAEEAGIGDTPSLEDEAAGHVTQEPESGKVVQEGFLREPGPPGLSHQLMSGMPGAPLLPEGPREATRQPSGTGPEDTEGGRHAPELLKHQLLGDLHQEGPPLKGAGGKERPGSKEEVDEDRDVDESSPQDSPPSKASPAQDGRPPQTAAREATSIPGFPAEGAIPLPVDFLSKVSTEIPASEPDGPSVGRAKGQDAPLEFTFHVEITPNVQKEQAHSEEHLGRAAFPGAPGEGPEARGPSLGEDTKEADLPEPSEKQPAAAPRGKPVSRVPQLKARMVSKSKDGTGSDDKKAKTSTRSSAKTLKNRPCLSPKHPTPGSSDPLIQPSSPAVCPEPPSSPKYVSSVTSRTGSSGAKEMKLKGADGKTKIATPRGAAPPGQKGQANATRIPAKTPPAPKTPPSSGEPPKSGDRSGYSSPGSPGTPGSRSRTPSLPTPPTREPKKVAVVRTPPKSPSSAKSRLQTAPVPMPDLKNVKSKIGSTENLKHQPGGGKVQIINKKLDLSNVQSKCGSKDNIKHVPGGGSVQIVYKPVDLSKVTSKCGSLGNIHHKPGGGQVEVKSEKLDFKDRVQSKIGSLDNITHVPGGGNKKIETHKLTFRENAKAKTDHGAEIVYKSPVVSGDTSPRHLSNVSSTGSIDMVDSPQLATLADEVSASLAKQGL

For `Cc1no[n+]([O-])c1COc1cccc(/C=C2\N=C(c3ccccc3)OC2=O)c1`, which Potency is on record?
The Potency was inconclusive: 39.8 µM [inhibitor, single point].

For `O=C(NNc1ccc(C(F)(F)F)cc1[N+](=O)[O-])c1ccc(NS(=O)(=O)c2ccc(F)cc2)cc1`, which Potency is on record?
The Potency was inconclusive: 7.08 µM [activator, single point].

With `Cc1ccc(/C=C2/NC(=O)N(Cc3ccccc3)C2=O)o1` as the compound, how does the Potency read?
Its Potency is inconclusive: 12.6 µM [inhibitor, partial curve, poor fit].

Which Potency does the source give for `CN1CC2=Cc3ccccc3OC23Oc2ccccc2C=C3C1` here?
The Potency was “inactive”.

`CSc1cc(C)[nH]c(=O)n1` was tested. Which Potency did it give?
The Potency was inconclusive: 31.6 µM [inhibitor, single point].

Which Potency does the source give for `O=C1NC(c2cccs2)Nc2sc3c(c21)CCCC3` (stereo not drawn) here?
The Potency was inconclusive: 39.8 µM [inhibitor, single point].

For `COc1ccccc1C(=O)n1nc(-c2ccco2)nc1SC`, which Potency is on record?
The Potency was inconclusive: 12.6 µM [activator, partial curve, poor fit].

With `Cc1cccc(NC(=O)c2sc3nc4c(c(-c5cccs5)c3c2N)CN(C)CC4)c1` as the compound, how does the Potency read?
The Potency was inconclusive: 25.1 µM [inhibitor, single point].

With `CC(C)(C)NC(=O)C(=O)NNC(=O)c1cccc(F)c1` as the compound, how does the Potency read?
Its Potency is “inactive”.

With `Cn1c(-n2c(CCCN3C(=O)c4ccccc4C3=O)nc3ccccc3c2=O)nc2ccccc21` as the compound, how does the Potency read?
Its Potency is inconclusive: 17.8 µM [inhibitor, partial curve, poor fit].

Which Potency does the source give for `CC1(C)CC(=O)C2=C(C1)N(c1cccc(O)c1)C1=C(C2)C(=O)CC(C)(C)C1` here?
Its Potency is inconclusive: 22.4 µM [inhibitor, single point].

For `O=C(Cn1c(=O)c2ccccc2n(CC(=O)Nc2ccc(F)cc2)c1=O)NCCc1ccccc1`, which Potency is on record?
Its Potency is inconclusive: 10 µM [inhibitor, partial curve, poor fit].

How did the Potency turn out when `COc1ccccc1CNC(=O)C(C)Sc1ccc(C)cc1` (stereo not drawn) was run?
Its Potency is “inactive”.

Which Potency does the source give for `O=[N+]([O-])c1cc(F)c2cccnc2c1O` here?
The Potency was inconclusive: 8.91 µM [inhibitor, partial curve].

With `COc1ccccc1/C=C/C(=O)Nc1ccc2c(c1)OCCO2` as the compound, how does the Potency read?
Its Potency is “inactive”.

With `O=[N+]([O-])c1cc(/C=N/OCc2c(Cl)cccc2Cl)ccc1N1CCOCC1` as the compound, how does the Potency read?
The Potency was inconclusive: 44.7 µM [inhibitor, single point].

With `CCN(CC)CCNC(=O)c1sc2ncn(CC(=O)Nc3ccc(C)c(Cl)c3)c(=O)c2c1C` as the compound, how does the Potency read?
Its Potency is inconclusive: 25.1 µM [inhibitor, partial curve].

For `CCc1ccccc1N(C)S(=O)(=O)c1ccc2[nH]cc(C(=O)N3CCc4ccccc43)c(=O)c2c1`, which Potency is on record?
The Potency was inconclusive: 2.51 µM [inhibitor, full curve].

For `CC(C)(C)C(=O)NC(=S)Nc1ccccc1F`, which Potency is on record?
Its Potency is “inactive”.

With `Cc1nn(CC(=O)Nc2cc(F)ccc2F)c(=O)c2cccn12` as the compound, how does the Potency read?
The Potency was inconclusive: 39.8 µM [inhibitor, single point].

How did the Potency turn out when `Cc1ccc(NC(=O)Cn2nnc(-c3ccccc3NC(=O)c3cccs3)n2)cc1` was run?
The Potency was inconclusive: 14.1 µM [inhibitor, partial curve].

How did the Potency turn out when `C1CCC(c2nn3c(-c4n[nH]c5c4CCC5)nnc3s2)CC1` was run?
The Potency was “inactive”.

With `O=C(CN1CCN(C(=O)c2ccco2)CC1)Nc1ccc2c(c1)OCCO2` as the compound, how does the Potency read?
The Potency was “inactive”.

How did the Potency turn out when `O=c1c(O)cc(C2Oc3cc(O)cc(O)c3CC2O)cc2c(C3Oc4cc(O)cc(O)c4CC3O)cc(O)c(O)c12` (stereo not drawn) was run?
The Potency was active: 1 µM.

`COc1cc(/C=N/NC(=O)c2ccccc2)ccc1O` was tested. Which Potency did it give?
Its Potency is “inactive”.

How did the Potency turn out when `Cc1ccc(-c2nnc(Nc3ccccc3)c3ccccc23)cc1S(=O)(=O)NCc1nc2ccccc2[nH]1` was run?
Its Potency is inconclusive: 35.5 µM [inhibitor, single point].

How did the Potency turn out when `O=C(/C=C/c1ccco1)NC(=S)Nc1ccccn1` was run?
Its Potency is “inactive”.

With `COc1ccc(OC)c(C2=NOC(C(=O)Nc3cc(C)on3)C2)c1` (stereo not drawn) as the compound, how does the Potency read?
Its Potency is inconclusive: 8.91 µM [inhibitor, single point].

With `Cc1cccc(C)c1NS(=O)(=O)c1ccc(NS(=O)(=O)c2ccc3c(c2)OCCO3)cc1` as the compound, how does the Potency read?
The Potency was inconclusive: 10 µM [inhibitor, partial curve].

`C=Cc1ccc(COc2ccc3oc(-c4ccccc4)c(C(=O)OCC)c3c2)cc1` was tested. Which Potency did it give?
Its Potency is inconclusive: 20 µM [inhibitor, partial curve].

Which Potency does the source give for `COc1ccc(/C=N/Nc2nc(C)c([N+](=O)[O-])c(N(C)c3ccccc3)n2)cc1OC` here?
The Potency was “inactive”.

For `COc1ccccc1NC(=S)NC(=O)CCCOc1ccc(Cl)cc1Cl`, which Potency is on record?
Its Potency is inconclusive: 2.51 µM [inhibitor, full curve].

For `O=C(Nc1cccc(Cl)c1Cl)c1cc(S(=O)(=O)NCCc2ccccc2)ccc1F`, which Potency is on record?
Its Potency is inconclusive: 2.51 µM [inhibitor, full curve, poor fit] and inconclusive: 17.8 µM [inhibitor, partial curve].

`O=C(CN1C(=O)C2(SCC(=O)N2c2ccccc2)c2ccccc21)NCc1ccccc1` (stereo not drawn) was tested. Which Potency did it give?
The Potency was “inactive”.

For `Cc1cccc(N=Nc2c(N)n[nH]c2-c2ccc(Cl)cc2)c1`, which Potency is on record?
Its Potency is inconclusive: 39.8 µM [inhibitor, single point].

With `Cc1c(Cl)cccc1NC(=O)Cn1nnc2sc3c(c2c1=O)CCCC3` as the compound, how does the Potency read?
Its Potency is inconclusive: 14.1 µM [inhibitor, partial curve].

`O=C(c1cc2ccc3cccnc3c2[nH]1)N1CCN(c2ccc(Cl)cc2)CC1` was tested. Which Potency did it give?
Its Potency is inconclusive: 39.8 µM [inhibitor, single point].

With `Cn1c(N)c(C(=O)COC(=O)CSc2ccc3ccccc3c2)c(=O)n(C)c1=O` as the compound, how does the Potency read?
The Potency was inconclusive: 28.2 µM [inhibitor, partial curve].

Which Potency does the source give for `O=C(CCc1nc2cccnc2n1Cc1ccccc1)NCc1cccc(Cl)c1` here?
The Potency was “inactive”.

With `O=C(Nc1cccc(Cl)c1)c1ccc2nc(Cc3ccccc3)oc2c1` as the compound, how does the Potency read?
Its Potency is inconclusive: 17.8 µM [inhibitor, partial curve].

Which Potency does the source give for `Cc1ccc(NC(=O)CSc2nn(-c3ccccc3)c(=S)s2)cc1S(=O)(=O)N(C)C` here?
Its Potency is inconclusive: 25.1 µM [inhibitor, partial curve].

For `Cc1csc(NC(=O)c2cc3c(C)nn(Cc4ccccc4Cl)c3s2)n1`, which Potency is on record?
The Potency was inconclusive: 31.6 µM [inhibitor, single point].

With `CC(=O)N1CC[n+]2c(-c3ccc(Cl)cc3)csc21` as the compound, how does the Potency read?
The Potency was inconclusive: 25.1 µM [inhibitor, partial curve].

How did the Potency turn out when `Cc1ccc2c(c1)N(C(=O)N1CCC(C(=O)NCCC3=CCCCC3)CC1)CC(C)O2` (stereo not drawn) was run?
Its Potency is inconclusive: 17.8 µM [activator, partial curve, poor fit].

Which Potency does the source give for `CN1c2ccc(Cl)cc2-c2nc(SCC(=O)Nc3cc(F)ccc3F)ncc2S1(=O)=O` here?
Its Potency is inconclusive: 31.6 µM [inhibitor, single point].

With `NC(=O)SCC(=O)Nc1cccc(Cl)c1` as the compound, how does the Potency read?
Its Potency is inconclusive: 35.5 µM [inhibitor, partial curve].

`Cc1cc(C)n(-c2cccc(F)n2)n1` was tested. Which Potency did it give?
The Potency was inconclusive: 31.6 µM [inhibitor, single point].

For `COc1ccc2cc(CNc3ccc(C)cc3)c(=O)n(CC(=O)Nc3ccc(OC)c(Cl)c3)c2c1`, which Potency is on record?
Its Potency is inconclusive: 1.78 µM [activator, full curve].

With `COC(=O)[C@@H](O)CC[C@@H](C)Cc1c(OC)c(OC)c(C)c(OC)c1OC` as the compound, how does the Potency read?
The Potency was “inactive”.

With `CCCCc1ccc(C(=O)Nc2ccc3nc(N(CC)CC)cc(C)c3c2)cc1` as the compound, how does the Potency read?
The Potency was inconclusive: 0.794 µM [activator, partial curve].

For `FC(F)(F)c1cnc(NNC(=S)Nc2ccccc2Cl)c(Cl)c1`, which Potency is on record?
Its Potency is inconclusive: 39.8 µM [inhibitor, single point].

`CC(=O)OCC1OC(C#Cc2ccc(F)cc2F)C=CC1OC(C)=O` (stereo not drawn) was tested. Which Potency did it give?
Its Potency is inconclusive: 3.16 µM [inhibitor, partial curve].

How did the Potency turn out when `COc1cc(OC)c(NC(=O)C2=C(C)C(=O)OC23CCCCC3)cc1Cl` was run?
Its Potency is “inactive”.

How did the Potency turn out when `O=C1C(Cl)=C(N2CCOCC2)C(=O)N1c1cccc(Cl)c1` was run?
The Potency was active: 28.2 µM.

Which Potency does the source give for `CCOc1ccc(NS(=O)(=O)c2cc(NC(=O)c3ccc(C)cc3)ccc2Cl)cc1` here?
The Potency was inconclusive: 11.2 µM [inhibitor, partial curve].

Which Potency does the source give for `C[C@H]1OC(OC2C(O)[C@@H](O)C(OC3C(O)[C@@H](O)C(O)O[C@@H]3CO)O[C@@H]2CO)[C@H](O)C(O)C1N[C@H]1C=C(CO)[C@@H](O)[C@H](O)C1O` (stereo partly drawn) here?
The Potency was “inactive”.

`CCOC(=O)Cc1nnc(NC(=O)c2ccccc2OCC)s1` was tested. Which Potency did it give?
The Potency was “inactive”.

With `COc1cccc(CCNC(=O)c2c(O)nc3cc(C)ccn3c2=O)c1` as the compound, how does the Potency read?
Its Potency is “inactive”.

Which Potency does the source give for `COc1ccc(-c2nc(CCNC(=O)c3cccs3)cs2)cc1OC` here?
The Potency was “inactive”.

`O=C(CCc1nc(-c2ccc(Cl)cc2)no1)NCC1CCCO1` (stereo not drawn) was tested. Which Potency did it give?
The Potency was “inactive”.

For `CCOC(=O)c1cccc(NC(=O)CN(c2ccc(OC)cc2)S(=O)(=O)c2c(C)noc2C)c1`, which Potency is on record?
Its Potency is inconclusive: 5.62 µM [inhibitor, partial curve, poor fit].

`CCOc1ccc(NC(=O)Nc2cc(C(C)C)c(O)cc2C)cc1` was tested. Which Potency did it give?
The Potency was inconclusive: 35.5 µM [activator, single point].

With `CCOc1ccc(C(=O)Nc2ccc(-c3nc4cc(C(C)C)ccc4o3)cc2)cc1Cl` as the compound, how does the Potency read?
The Potency was inconclusive: 10 µM [inhibitor, partial curve].

`COc1cc2c(cc1OC)CN(C(=O)c1cc3ccccc3oc1=O)CC2` was tested. Which Potency did it give?
The Potency was “inactive”.

How did the Potency turn out when `COc1ccccc1C1C=C(c2ccccc2)Nc2nnnn21` (stereo not drawn) was run?
The Potency was “inactive”.

How did the Potency turn out when `COc1ccc(-c2nnc3ccc(SC)nn23)cc1` was run?
The Potency was “inactive”.

Which Potency does the source give for `CCOc1ccc(/C=C2/SC(=S)N(C(C(=O)O)c3ccccc3)C2=O)cc1OCC` (stereo not drawn) here?
Its Potency is inconclusive: 39.8 µM [inhibitor, single point].

`COc1cc(C2/C(=C(\O)c3cc(C)ccc3C)C(=O)C(=O)N2CCN(C)C)ccc1O` (stereo not drawn) was tested. Which Potency did it give?
The Potency was “inactive”.

From PubChem BioAssay AID1468 (National Center for Advancing Translational Sciences (NCATS), 2008)
